Laboratory results taken from the supplement of paper PMC4604168 (melanoma cell lines).
The list shows a part of the results. Single values are uncertain, as repeats are few or missing.

The compounds below were run on UACC257 (assay: cell count relative to DMSO control; melanoma cells; higher = more viable cells). Details: library dose: low library concentration; 72 h.
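Note: cell number obtained by counting DAPI-stained nuclei in high-throughput microscope images with image analysis software, screen run in 1,536-well plates.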

SMILES | cell count
CC(C)C[C@H](NC(=O)[C@H](Cc1ccccc1)NC(=O)c1cnccn1)B(O)O [Bortezomib] + O=c1cc(-c2cccc3c2Sc2ccccc2S3)oc(N2CCOCC2)c1 [KU55933] (first compound 0.001 µM, partner dose 1 µM) | 60.9%
COc1ccc(C2=N[C@@H](c3ccc(Cl)cc3)[C@@H](c3ccc(Cl)cc3)N2C(=O)N2CCNC(=O)C2)c(OC(C)C)c1 [Nutlin-3] + CN(C)S(=O)(=O)c1ccc2c(c1)/C(=C/c1cc3c([nH]1)CCCC3)C(=O)N2 [SU6656] (first compound 0.1 µM, partner dose 0.4 µM) | 85.2%
Cc1cc(Nc2cc(N3CCN(C)CC3)nc(/C=C/c3ccccc3)n2)n[nH]1 + CCc1ccc(CCOc2ccc(CC3SC(=O)NC3=O)cc2)nc1 [pioglitazone] (first compound 0.04 µM, partner dose 2 µM) | 101%
Cn1c(=O)n(-c2ccc(C(C)(C)C#N)cc2)c2c3cc(-c4cnc5ccccc5c4)ccc3ncc21 + O=C(Nc1ccccc1)c1cc([N+](=O)[O-])ccc1Cl [GW9662] (first compound 0.004 µM, partner dose 2 µM) | 115%
Cc1cn(-c2cc(NC(=O)c3ccc(C)c(Nc4nccc(-c5cccnc5)n4)c3)cc(C(F)(F)F)c2)cn1 [nilotinib] + COc1cc2c(Oc3ccc4[nH]c(C)cc4c3F)ncnc2cc1OCCCN1CCCC1 [cediranib] (first compound 0.2 µM, partner dose 0.4 µM) | 74.4%
Cc1cc(Nc2cc(N3CCN(C)CC3)nc(/C=C/c3ccccc3)n2)n[nH]1 + OCCn1cc(-c2cnc3nnn(Cc4ccc5ncccc5c4)c3n2)cn1 [PF04217903] (first compound 0.04 µM, partner dose 1 µM) | 82.8%
CC(C)C[C@H](NC(=O)[C@H](Cc1ccccc1)NC(=O)c1cnccn1)B(O)O [Bortezomib] + NCC(=O)Nc1ccc(-n2nc(C(F)(F)F)cc2-c2ccc3c(ccc4ccccc43)c2)cc1 [OSU03012] (first compound 0.001 µM, partner dose 1 µM) | 79.4%
Cn1c(=O)n(-c2ccc(C(C)(C)C#N)cc2)c2c3cc(-c4cnc5ccccc5c4)ccc3ncc21 + COc1cc(Nc2ncc(F)c(Nc3ccc4c(n3)NC(=O)C(C)(C)O4)n2)cc(OC)c1OC [Tamatinib] (first compound 0.004 µM, partner dose 0.4 µM) | 60.6%
COc1ccc(C2=N[C@@H](c3ccc(Cl)cc3)[C@@H](c3ccc(Cl)cc3)N2C(=O)N2CCNC(=O)C2)c(OC(C)C)c1 [Nutlin-3] + CCN(CC)CCCCNc1ncc2cc(-c3cc(OC)cc(OC)c3)c(NC(=O)NC(C)(C)C)nc2n1 [PD173074] (first compound 0.1 µM, partner dose 0.1 µM) | 84.5%
CC(C)C[C@H](NC(=O)[C@H](Cc1ccccc1)NC(=O)c1cnccn1)B(O)O [Bortezomib] + CN(C)S(=O)(=O)c1ccc2c(c1)/C(=C/c1cc3c([nH]1)CCCC3)C(=O)N2 [SU6656] (first compound 0.001 µM, partner dose 0.4 µM) | 66.8%
Cc1cn(-c2cc(NC(=O)c3ccc(C)c(Nc4nccc(-c5cccnc5)n4)c3)cc(C(F)(F)F)c2)cn1 [nilotinib] + COc1ccc(COc2ccc(Cc3cnc(N)nc3N)cc2OC)cc1 [GW2580] (first compound 0.2 µM, partner dose 1 µM) | 103%
CC(C)C[C@H](NC(=O)[C@H](Cc1ccccc1)NC(=O)c1cnccn1)B(O)O [Bortezomib] + Oc1cc(-c2nc(-c3ccccc3)[nH]c2-c2ccncc2)ccc1Cl [L779450] (first compound 0.001 µM, partner dose 0.2 µM) | 74.7%
CC(C)C[C@H](NC(=O)[C@H](Cc1ccccc1)NC(=O)c1cnccn1)B(O)O [Bortezomib] + Cc1cc(N2CCOCC2)cc2[nH]c(-c3c(NC[C@@H](O)c4cccc(Cl)c4)cc[nH]c3=O)nc12 [BMS536924] (first compound 0.001 µM, partner dose 0.2 µM) | 76.9%
Cn1c(=O)n(-c2ccc(C(C)(C)C#N)cc2)c2c3cc(-c4cnc5ccccc5c4)ccc3ncc21 + COc1cc2c(Oc3ccc4[nH]c(C)cc4c3F)ncnc2cc1OCCCN1CCCC1 [cediranib] (first compound 0.004 µM, partner dose 0.4 µM) | 88.1%
